According to publication PMC12136788:
Some of the results follow.

T1: UNK ZnF1-3 (human, UniProt Q9C0B0 31-174)
T1 sequence: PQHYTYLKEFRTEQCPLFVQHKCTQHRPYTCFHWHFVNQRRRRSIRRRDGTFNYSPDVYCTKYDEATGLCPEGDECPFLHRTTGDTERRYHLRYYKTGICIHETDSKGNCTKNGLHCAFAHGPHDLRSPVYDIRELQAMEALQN

B1: 46381354_46381577_853_CDS_ENSMUSG00000067148_ENSMUST00000087026|mouse|control|control (ssRNA)
RNA: GGGAGUUCUACAGUCCGACGAUCCCUGGCCACCUUUUUACCUUGUACUUCCUCCACCUCAAUCACGCCAGGGGAGAAACACUGGCUCAGCUCCUCAGCCGCUUCUCCUUCCACAGGCUCAAGCAGAGUGAUGGCCGGUAGCAGCAACAGAGGAUUGAGCAUCA
B2: 25783920_25784040_2318_CDS_ENSG00000091490_ENST00000264868|human|control|control (ssRNA)
RNA: GGGAGUUCUACAGUCCGACGAUCGUAUGACGCAUCUGGGUUCCCCAUUUCUUCUGCUUUUAACCAGUACUUUGCUGCUUUGGCGUAAUUUUUCUUGAAUUUGUGGUAAUACCAUCCCAGGCCAUUGACUGCCUGAUGCAAUCCCAACAGAGGAUUGAGCAUCA
B3: chr7:54823571:54823572:-_ENSG00000132432_ENST00000352861|hu_mus|hu_hu_hu_mus_False|1_58 (ssRNA)
RNA: GGGAGUUCUACAGUCCGACGAUCUCCCAUGAUAGCAAAUCCUAUAGCUGUAGCCAUGGCAAUCUUCUGGAAUUCUUUUCUAUCAGGUUUGGUGCAUCUUUUAACCAGCCGAAUUGAGUCCUUUACAAACUGCCGGCUUGGCUCCAACAGAGGAUUGAGCAUCA
B4: chr6:146598974:146598975:+_ENSMUSG00000030291_ENSMUST00000032429|mus_hu|motif|central (ssRNA)
RNA: GGGAGUUCUACAGUCCGACGAUCCUGAUUCAAUCAUGAUUUUAUAAGCUUAUCAAGAGUGAAAAUAGAAGACUAUUAAAAAUAGCGGAAAAGGUAAUGUGUCAUAGUGUUUAAUGUUUCUGUAAUUGUUGGUAAGGCUUGUAUCAACAGAGGAUUGAGCAUCA
B5: chr2:232320318:232320319:-_ENSG00000115053_ENST00000322723|hu_hu|hu_hu_hu_mus_True|38_58 (ssRNA)
RNA: GGGAGUUCUACAGUCCGACGAUCACUAUUAAAGUCUACAAAACCAAACCCUUUGGAAGAACCAGUUUCCCGAUCAGUAACUAUCCUUGCACGAACAGAGCCGUCAAAUGAUUCUUUUAAGGUCUCUUCAGUGGUAUCCUCAGACAACAGAGGAUUGAGCAUCA
B6: chr6:108246082:108246083:-_ENSG00000025796_ENST00000369002|hu_mus|motif|central (ssRNA)
RNA: GGGAGUUCUACAGUCCGACGAUCUGUUUUGGAAACUUUGUAUGCAAGAAAUAAGAACAGUGCCCAUCCUGCAAGCAGAACGGUUUUCUUUACUGUAGGAAUAAUAUUUGGCUGGGGUUUUAAUAACCGUAAACGAUACCACAUCAACAGAGGAUUGAGCAUCA
B7: chr3:148802587:148802588:-_ENSG00000071794_ENST00000310053|hu_mus|hu_hu_hu_mus_False|8_38 (ssRNA)
RNA: GGGAGUUCUACAGUCCGACGAUCUCCAACAACUUGUCCUCUCAUAGUUCCAAAUAAAACCAAAUCUUGCUCUUCAUCACUCGUUAGGAAGUCAUCUGGAGGGAUAAUGUCUUGGAAUUCAAAAUGUGGAAAGAAAGUUGAGUACAACAGAGGAUUGAGCAUCA
B8: chr1:202705475:202705476:-_ENSG00000117139_ENST00000367264|hu_hu|motif|central (ssRNA)
RNA: GGGAGUUCUACAGUCCGACGAUCCAGUCUUGGCAAAGAAUUCAGAUGUACGGGGAUAGAUCGGCCUCGUGUAACAAGUUCGGUGAGUGUGUCUAACACUGGCACACGUCCUCCAGCCUGCAGGCCCUCUACAUCCUGAAGCCACAACAGAGGAUUGAGCAUCA
B9: chr7:149068622:149068623:-_ENSMUSG00000025139_ENSMUST00000001950|mus_hu|mus_mus_mus_hu_False|48_88 (ssRNA)
RNA: GGGAGUUCUACAGUCCGACGAUCGUGAGGCCUCUGAGUGUGGCUUGUGCUCUGCAGUGGGUUAGAGUUGUUAAUAUCACGGAACAUACCACUUAAGACGUUCCAGUCCCGCCUGACACCUUCAUUCCCAAUGGAGAAGAAAUCCAACAGAGGAUUGAGCAUCA
B10: 86453445_86453565_1449_CDS_ENSMUSG00000013033_ENSMUST00000141158|mouse|control|control (ssRNA)
RNA: GGGAGUUCUACAGUCCGACGAUCCGUGGUGGUGUGGCGUGCGGCUACAUAGUCCUCCCAUGAGGCAUAUUCAGUCAAUGUGUCCGUGCGGUAGGGGAUCCAGGGCAUAACGUAGAUACGGUCACCUGCCUGCAGCGGGUCCUUCAACAGAGGAUUGAGCAUCA
B11: chr5:135103553:135103554:-_ENSMUSG00000040731_ENSMUST00000036125|perfect_dup|FALSE|FALSE (ssRNA)
RNA: GGGAGUUCUACAGUCCGACGAUCGUCUUUGUCUCUGACUAGCCGUACACUCCUUAUGCUGAGAUCCUUAAAGAUAGCAUCUAUGUCGCCCUGAACCGUAUUGAAAGGUAGAUUUCCUACGUAUGCUGUGUAGGGGGGCUCUGUCAACAGAGGAUUGAGCAUCA
B12: chr5:145543945:145543946:-_ENSG00000133706_ENST00000545646|hu_hu|hu_hu_hu_mus_True|38_108 (ssRNA)
RNA: GGGAGUUCUACAGUCCGACGAUCCUGAAUAGCCAGUGGUGGGAAAUAAUCAAGCCAGUGCUCUGCUUCAGAAAACUUCACUAUGUCGUCAUCAGAGAGGCCAAGGGAUUUCAUAAUGUCCCACUGGUACUUAGAAGAUCCUGCCAACAGAGGAUUGAGCAUCA
B13: chr3:150289932:150289933:+_ENSG00000144895_ENST00000460851|hu_hu|hu_hu_hu_mus_False|58_78 (ssRNA)
RNA: GGGAGUUCUACAGUCCGACGAUCCUUGUAGUUUUUAACAUCCCAUACUUCCAUUUGUCCCCUCAGAUUUCCAAAUCCAGCUAAUACUAAUAUAUGUCCAUGAGGGCUAUAGAAGGCUGCGUUGCGAGGACCAGUCCCAAAGUCCAACAGAGGAUUGAGCAUCA
B14: 87705668_87706460_6155_CDS_ENSG00000163629_ENST00000511467|human|control|control (ssRNA)
RNA: GGGAGUUCUACAGUCCGACGAUCCACAACAUCCAGCAGAGACUGGAUAACUUCAGCUUCUUGGGAAUCAUCAUAAAUGUCAUCUUCUUGUAUAUAAGAUUCUUUGGGCAGAGUCAAGUUUGGUGAUCCCUUUAUCUGAUAAGUCAACAGAGGAUUGAGCAUCA
B15: chr7:13615833:13615834:+_ENSMUSG00000005566_ENSMUST00000005705|mus_mus|motif|central (ssRNA)
RNA: GGGAGUUCUACAGUCCGACGAUCCUUGUUGAACUGUUUGAACAUGCGGCCCACAUCUUGAGCAAACUCCUGGGGGGAGCGGUAAGGAGGUGACAGCUUCUCUUGGAGGCGAGCACGAAUCAAGGUCAGGUCUAGGGUACCACCCAACAGAGGAUUGAGCAUCA
B16: chr1:60041781:60041782:+_ENSMUSG00000041040_ENSMUST00000036540|mus_hu|mus_mus_mus_hu_False|8_28 (ssRNA)
RNA: GGGAGUUCUACAGUCCGACGAUCAAGUUUACAAUAGUAAAGUAAAUGCAGUAGUGGCAAAUUUUCUUUUAUUUUCCUUCACAAAAGAAAAUCUUUAUAACCCAGUCCAAUCCCAGAACAUAGUGAAUCUCCAUGGGUCUGACUCAACAGAGGAUUGAGCAUCA
B17: chr2:9724522:9724523:-_ENSG00000134308_ENST00000238081|hu_hu|FALSE|FALSE (ssRNA)
RNA: GGGAGUUCUACAGUCCGACGAUCGGCUUUUUUGGGACUACAGUCAAUGAUUAGCAACACACAAUAGUGGUCCAACUCUCUAAAUAACAAUCACUAGACAAACUGGACACCCUCUCACAUGUGCACAAAUCUGCAUGGAAAAGUCAACAGAGGAUUGAGCAUCA
B18: chr2:217001844:217001845:+_ENSG00000079246_ENST00000392132|hu_hu|hu_hu_hu_mus_False|1_1 (ssRNA)
RNA: GGGAGUUCUACAGUCCGACGAUCACCAACUUGAGGAUUAGAUCUUUUGUCAUAAGCAUAUCGGACGAUGGCGACCAUGUUUAACUCAUCCAAAGCAUGAACGAGAGAGGAAAGGGCAACAGCUGCCGCCUCAUCAUCUCUUGCCAACAGAGGAUUGAGCAUCA
B19: chr5:121887652:121887653:+_ENSMUSG00000042719_ENSMUST00000042163|mus_mus|FALSE|FALSE (ssRNA)
RNA: GGGAGUUCUACAGUCCGACGAUCGAAGACCAGAUUCUCUAGGACUGCAGGCUGGGUCUUCACAUUGCCAUCUGUAACUUCUAAGAGGUCCCCUUUACAUGUGCUGAAGACACCUUUCAAUAGUUCUAGUAAAGAUGCAAGACUCAACAGAGGAUUGAGCAUCA
B20: chrX:45984076:45984077:+_ENSMUSG00000031105_ENSMUST00000114936|mus_hu|FALSE|FALSE (ssRNA)
RNA: GGGAGUUCUACAGUCCGACGAUCGAAACGGGCAUCAAUGCUUUGGCCUUGAACCUGAAGUCGUGUUUUGGUAAGGUCCACAGGGAAAGUCCCAAACUCAGCCACGAUAGAGGCAAGGCCGCCAUAUACAAAGGGUUUCCAAUUCAACAGAGGAUUGAGCAUCA
B21: chr19:36946997:36946998:+_ENSMUSG00000024811_ENSMUST00000025729|mus_mus|motif|central (ssRNA)
RNA: GGGAGUUCUACAGUCCGACGAUCAUAUUUUCCUUUUGCUGCAGCUUCAUGUAAAGGUGUGAACUUCCACAAGUCAGCGACAUUGACGGCUGCUCCAUGCUUGACAAGAAGUUCUGCAACUUCAUAGUGUCCAUAAGAACAUGCCAACAGAGGAUUGAGCAUCA
B22: chr9:14812383:14812384:-_ENSMUSG00000031934_ENSMUST00000164273|mus_mus|mus_mus_mus_hu_True|1_108 (ssRNA)
RNA: GGGAGUUCUACAGUCCGACGAUCAUAGCUCAAGUAGAUACACGCUAACAGUAUAAUGAUGAGUGUCAGCAGGCGGCAGCUAAUGUACUUGAUGAUUAAAUUAUUAGAAUUUUUCUUUGUCUUCAAGUACUGCUCCACGAUUGGCAACAGAGGAUUGAGCAUCA

target: T1, UNK ZnF1-3; assay: nsRBNS (natural sequence RNA bind-n-seq); RBNS binding buffer (assumed for nsRBNS): 25 mM Tris pH 7.5, 150 mM KCl, 3 mM MgCl2, 0.01% Triton X-100, 500 ug/ml BSA, 20 U/ml SUPERase-In, 4 C; UNK is unkempt and MSI1 is Musashi-1; names of the RNAs are library labels; protein concentration not given here; high values mean tight binding

With B1 as the binder, how does the binding signal read?
The binding signal was 0.646 enrichment R.

Which binding signal does the source give for B2 here?
The binding signal was 0.487 enrichment R.

With B3 as the binder, how does the binding signal read?
The binding signal was 0.807 enrichment R.

With B4 as the binder, how does the binding signal read?
Its binding signal is 2.46 enrichment R.

Which binding signal does the source give for B5 here?
Its binding signal is 0.97 enrichment R.

How did the binding signal turn out when B6 was run?
The binding signal was 0.646 enrichment R.

B7 was tested. Which binding signal did it give?
The binding signal was 1.22 enrichment R.

For B8, which binding signal is on record?
Its binding signal is 0.712 enrichment R.

With B9 as the binder, how does the binding signal read?
The binding signal was 0.788 enrichment R.

How did the binding signal turn out when B10 was run?
Its binding signal is 0.82 enrichment R.

How did the binding signal turn out when B11 was run?
Its binding signal is 0.876 enrichment R.

How did the binding signal turn out when B12 was run?
Its binding signal is 1.28 enrichment R.

With B13 as the binder, how does the binding signal read?
Its binding signal is 1.19 enrichment R.

For B14, which binding signal is on record?
Its binding signal is 0.776 enrichment R.

With B15 as the binder, how does the binding signal read?
Its binding signal is 2.35 enrichment R.

For B16, which binding signal is on record?
Its binding signal is 0.939 enrichment R.

Which binding signal does the source give for B17 here?
Its binding signal is 1.51 enrichment R.

Which binding signal does the source give for B18 here?
The binding signal was 1.64 enrichment R.

With B19 as the binder, how does the binding signal read?
Its binding signal is 1.12 enrichment R.

How did the binding signal turn out when B20 was run?
The binding signal was 0.706 enrichment R.

With B21 as the binder, how does the binding signal read?
The binding signal was 0.712 enrichment R.

How did the binding signal turn out when B22 was run?
Its binding signal is 0.923 enrichment R.
